# Results reported in PubChem BioAssay AID651820 (National Center for Advancing Translational Sciences (NCATS), 2012).
# Out of some 340,000 compounds screened, about 12,000 (3.5%) were called active. Inconclusive results, whose numbers are uncertain, are shown with a selection of clear calls. Calls come from the whole dose curve; as a rule, active = well fitted inhibition curve with a large enough effect; inconclusive = small, poorly fitted or top-dose-only effect, or another doubt; inactive = no such curve, though single readings can be large or run the other way. No potency is given beside an inconclusive call; the fits are too rough.
# Assay: qHTS Assay for Inhibitors of Hepatitis C Virus (HCV)
# Conditions: Huh7.5.1 HCVcc-Cre (HCVcc is cell-culture hepatitis C virus) infection, luciferase reporter, 44 h; series mostly up to 41.8 µM
# Summary of the method: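 After 44 h co-culture of compound, cells and HCVcc-Cre (~0.5 moi), substrate is added for 15 min at room temperature and luciferase measured over 15 sec. Cells were seeded at 1,000/well and pre-cultured 4 h.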
# Potency is the fitted concentration of half-maximal effect; tags give direction and shape of the fitted curve.
row,Compound,Potency
1,Cc1ccccc1O,inactive
2,CCc1ccc(OCC(O)CN2CCCC2)cc1 (stereo not drawn),inactive
3,COc1ccc(C2Nc3ccccc3C(=O)N2NS(=O)(=O)c2ccc(C)cc2)c(OC)c1 (stereo not drawn),"inconclusive [inhibitor, full curve, poor fit]"
4,CCN(CC)C(=O)CSc1nc2c(sc(=S)n2-c2ccccc2)c(=O)n1-c1ccc(OC)c(OC)c1,"inconclusive [inhibitor, single point]"
5,CCc1nc2sc3c(c2c(=O)n1NC(=O)CCl)CCCC3,"inconclusive [inhibitor, partial curve]"
6,Cc1cccc(-n2ncc(Cl)c(Cl)c2=O)c1,active: 11.2 µM
7,CCn1cc(C(=O)Nc2ccc3c(c2)OCCO3)c2cc(OC)c(OC)cc2c1=O,"inconclusive [inhibitor, single point]"
8,CCOC(=O)c1c(NC(=O)C2CCCO2)sc2c1CCC2 (stereo not drawn),"inconclusive [inhibitor, single point]"
9,O=C(CSc1nnc(-c2c[nH]c3ccccc23)o1)N(Cc1ccccc1)c1ccc(F)cc1,"inconclusive [inhibitor, partial curve]"
10,Cc1ccnc(NC(=O)C2CCCN(S(=O)(=O)c3cnc[nH]3)C2)c1 (stereo not drawn),inactive
11,COc1ccc(OC)c(Nc2cc(C(=O)NCCCN3CCOCC3)c3ccccc3n2)c1,"inconclusive [inhibitor, partial curve]"
12,COc1cccc(/C=C2\SC(=S)N(CCC(=O)NCCc3ccc(O)cc3)C2=O)c1,"inconclusive [inhibitor, single point]"
13,NC(=O)N/N=C/c1cc(Br)ccc1OCC(=O)NCc1ccccc1,"inconclusive [inhibitor, single point]"
14,CC(=O)Nc1ccc(S(=O)(=O)N2CCc3cc4c(cc3C2C)OCCCO4)cc1 (stereo not drawn),"inconclusive [inhibitor, single point]"
15,CC1=C(C#N)C(c2cccnc2)C2=C(CC(c3ccc(Cl)cc3)CC2=O)N1 (stereo not drawn),inactive
16,C=CCN(c1ccccc1)S(=O)(=O)c1cccc(C(=O)Nc2cc(C)ccn2)c1,"inconclusive [inhibitor, single point]"
17,Cc1ccc2nc3c(cc(C(=O)NCC4CCCO4)n3C)c(=O)n2c1 (stereo not drawn),inactive
18,Cc1ccccc1Nc1nc(NCc2ccco2)c2ccccc2n1,"inconclusive [inhibitor, single point]"
19,CN(C)S(=O)(=O)c1ccc(C(=O)OCCn2cnc3c2c(=O)n(C)c(=O)n3C)cc1,"inconclusive [inhibitor, partial curve]"
20,CCCCN(C)CCCNC(=O)c1cccc(N2CCCC2=O)c1,inactive
21,FC(F)(F)c1cc(-c2ccco2)nc(NCc2cccnc2)n1,"inconclusive [inhibitor, partial curve]"
22,CCOc1ccc2nc3cc(NCc4ccc(OC)cc4)ccc3c(N)c2c1,"inconclusive [inhibitor, single point]"
23,Cc1ccc(/C=C/C(=O)OCc2nc(N)nc(Nc3ccccc3C)n2)o1,"inconclusive [inhibitor, partial curve]"
24,CC(C)C(=O)N1CCN(c2ccccc2NC(=O)COc2ccc(C3CCCCC3)cc2)CC1,"inconclusive [inhibitor, single point]"
25,Cc1ccc(-c2nc3ccccc3[nH]2)cc1NC(=O)c1ccco1,inactive

row,Compound,Potency
1,C#CC(C)(C)NC(=O)c1ccccc1OC,inactive
2,COc1ccc(NC(=O)c2cc(-c3ccc4c(c3)OCO4)on2)cc1OC,"inconclusive [inhibitor, single point]"
3,CC(NC(=O)COC(=O)CC(c1ccccc1)c1ccccc1)c1ccccc1 (stereo not drawn),inactive
4,O=C(c1ccc2snnc2c1)N1CCSCC1,"inconclusive [inhibitor, single point]"
5,O=C(CCSc1ccccc1)NC1CCCCCC1,inactive
6,CCN(CC)c1ccc(C2NC(=O)c3ccccc3N2)cc1 (stereo not drawn),inactive
7,COc1ccccc1CCN1CCCC(CN(C)C(=O)c2ccoc2)C1 (stereo not drawn),inactive
8,CCCc1nc(NCC2CCCO2)c2nnn(Cc3ccccc3)c2n1 (stereo not drawn),inactive
9,CCOc1ccccc1NC(=O)c1cc(-c2cc(OC)c(OC)c(OC)c2)nc2ccccc12,active: 8.91 µM
10,COc1ccc(NC(=O)CNC(=O)Cc2cccc3ccccc23)c(OC)c1,"inconclusive [inhibitor, full curve, poor fit]"
11,CN(C)c1ccc(/C=C/C(=O)c2ccccc2)cc1[N+](=O)[O-],inactive
12,CCOc1ccc(CCNC(=O)COC(=O)COc2ccc(C#N)cc2)cc1OCC,"inconclusive [inhibitor, partial curve]"
13,CCC(=O)Nc1nc2ccccc2n1CCN1CCOCC1,inactive
14,Cc1cc(N/N=C/c2ccccc2)nc(N2CCOCC2)n1,"inconclusive [inhibitor, partial curve]"
15,COc1cc(C(=O)Nc2ccc3oc(-c4cccnc4)nc3c2)cc(OC)c1OC,"inconclusive [inhibitor, partial curve]"
16,COc1cc2c(cc1NC(=O)COCC(=O)O)oc1ccccc12,inactive
17,CCCCn1nc(NC(=O)COC)c2cc3ccc(C)cc3nc21,"inconclusive [inhibitor, partial curve]"
18,CN(C)c1ccc(C2C3CCCc4ccccc4C3=NN2C)cc1 (stereo not drawn),"inconclusive [inhibitor, single point]"
19,CCOc1cc(CNCCO)cc(Br)c1OCc1ccc(Cl)cc1,active: 12.6 µM
20,Nc1ccc(Br)cc1C(=O)c1ccccc1,inactive
21,O=C(Nc1nccs1)c1cc2c(s1)-c1ccccc1OC2,"inconclusive [inhibitor, single point]"
22,O=C(Nc1cccc(CCc2ccccn2)c1)c1cc(F)c(F)cc1Cl,"inconclusive [inhibitor, single point]"
23,O=S(=O)(c1c(F)cccc1F)N(CCc1ccc(F)cc1)C[C@@H](O)COCc1ccccc1,"inconclusive [inhibitor, single point]"
24,CC(=O)c1ccc(NC(=O)CSc2nnc(-c3ccco3)c(-c3ccco3)n2)cc1,"inconclusive [inhibitor, full curve, poor fit]"
25,CC(C)CNC(=O)C1Nc2ccccc2C2C=CCC12 (stereo not drawn),"inconclusive [inhibitor, single point]"

row,Compound,Potency
1,S=C(NC1CCCC1)N1CCN(C/C=C/c2ccccc2)CC1,active: 10 µM
2,CCOC(=O)C1=CN(Cc2ccco2)S(=O)(=O)N(CC)C1c1ccc(C(F)(F)F)cc1 (stereo not drawn),"inconclusive [inhibitor, partial curve]"
3,O=C(COc1cccc2c1CCN(Cc1ccc(Br)cc1)C2=O)N1CCOCC1,active: 11.2 µM
4,Cc1csc2c(NC3CCN(Cc4ccccc4)CC3)ncnc12,"inconclusive [inhibitor, partial curve]"
5,COCCNc1c(-c2ccc(O)cc2)nc2ccc(Cl)cn12,"inconclusive [inhibitor, single point]"
6,N/C(=N\C(=S)Nc1ccccc1)c1ccccc1,"inconclusive [inhibitor, single point]"
7,COc1cccc(NC(=O)CN(C)C(=O)c2cc(-c3ccc(F)cc3)nc3ccccc23)c1,"inconclusive [inhibitor, single point]"
8,O=S1(=O)CCS(=O)(=O)C1c1ccccc1,inactive
9,Cc1ccc(Nc2ncnc3sc(C)c(C)c23)cc1C,"inconclusive [inhibitor, single point]"
10,Cc1ccc(C(C)C)c(OCCNCCc2ccccc2)c1,"inconclusive [inhibitor, single point]"
11,C[C@]12C(=O)N(c3ccc(Cl)cc3)C(=O)N1[C@@H]1c3ccccc3OC[C@@H]1[C@H]2c1ccccc1,"inconclusive [inhibitor, partial curve]"
12,C/C(=N\NC(=O)c1c(Cl)cnn1C)c1ccc(NC(=O)c2ccncc2)cc1,"inconclusive [inhibitor, single point]"
13,Cc1c(OCC(=O)N2CCC(C(N)=O)CC2)ccc2c3c(c(=O)oc12)CCC3,inactive
14,COc1cccc(/C=N/NC(=O)CNC(=O)c2cccnc2)c1O,inactive
15,O=[N+]([O-])C1=CC=C2C(=NC3(CCCCC3)N2O)C1=NCCO,"inconclusive [inhibitor, partial curve, poor fit]"
16,O=C(C1CCN(S(=O)(=O)c2ccc3ccccc3c2)CC1)N1CCN(c2ncccn2)CC1,"inconclusive [inhibitor, single point]"
17,O=C(Nc1ccc(S(=O)(=O)N2CCOCC2)cc1)c1ccc(Cl)cc1,"inconclusive [inhibitor, single point]"
18,COc1ccccc1NC(=O)CSc1n[nH]c(-c2ccccn2)n1,"inconclusive [inhibitor, single point]"
19,N#Cc1ccccc1COC(=O)c1ccc2c(c1)OCCO2,inactive
20,CCOc1cc(S(=O)(=O)Nc2ccccc2CC)ccc1Cl,active: 10 µM
21,CN(C)C(=O)c1ccc(Nc2nc(-c3cccs3)nc3ccccc23)cc1,active: 2.82 µM
22,O=C(O)/C(=C\c1ccc(Br)cc1)c1ccc(S(=O)(=O)N2CCCCC2)s1,inactive
23,COc1ccc(-n2c(SCC(=O)NCc3ccco3)nc3c([nH]c4ccccc43)c2=O)cc1,"inconclusive [inhibitor, partial curve]"
